{"source": "a collection of fitness landscapes (doi:10.1016/j.celrep.2020.107928)", "parents": {"B1": {"name": "Caulobacter ParB omega fusion; a variant is named by its letters at X, in order, B8GW30 (parent)", "chain": "MESVVVGEPGMSEGRRGLGRGLSALLGEVDAAPAQAPGEQLGGSREAPIEILQRNPDQPRRTFREEDLEDLSNSIREKGVLQPILVRPSPDTAGEYQIVAGERAWRAAQRAGLKTVPIMVRELDDLAVLEIGIIENVQRADLNVLEEALSYKVLMEKFERTQENIAQTIGKSXSHVANXMRLLXLPDEVQSYLVSGELTAXHARAIAAAADPVALAKQIIEGGLSVRETEALARKAPNLSAGKSKGGRPPRVKDTDTQALESDLSSVLGLDVSIDHRGSTGTLTITYATLEQLDDLCNRLTRGI"}}, "note": "The full ranking holds about 81,000 sequences; the median of “one-hybrid fitness for binding NBS DNA” is about -0.1, and the highest 2% start at about 0.36. This is one part of the list."}
{"variants_of": "B1", "experiment": "one-hybrid fitness for binding NBS DNA (the Noc-binding site; scaled: cognate 1, non-cognate 0); higher = stronger binding", "details": "with NBS DNA site", "outline": "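In E. coli USO, a HIS3 reporter with its site placed 19 bp from the promoter was used to select Caulobacter ParB variants randomised at four specificity codons. Growth lasted 48 hours at 37°C on histidine-free M9 containing 0.1 mM IPTG and 5 mM 3-AT. Fitness was taken as the log change in variant-to-wild-type read ratio from Illumina sequencing of pre- and post-selection plasmids, rescaled between the non-cognate and cognate sites.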"}
{"variant": "WRKR", "one-hybrid fitness for binding NBS DNA": 0.257}
{"variant": "TNYW", "one-hybrid fitness for binding NBS DNA": "≤ 0.2"}
{"variant": "VQSV", "one-hybrid fitness for binding NBS DNA": "≤ 0.2"}
{"variant": "ACLI", "one-hybrid fitness for binding NBS DNA": "≤ 0.2"}
{"variant": "SLIT", "one-hybrid fitness for binding NBS DNA": "≤ 0.2"}
{"variant": "PVHK", "one-hybrid fitness for binding NBS DNA": "≤ 0.2"}
{"variant": "HIRT", "one-hybrid fitness for binding NBS DNA": "≤ 0.2"}
{"variant": "ASAT", "one-hybrid fitness for binding NBS DNA": "≤ 0.2"}
{"variant": "PYHC", "one-hybrid fitness for binding NBS DNA": "≤ 0.2"}
{"variant": "LHWC", "one-hybrid fitness for binding NBS DNA": "≤ 0.2"}
{"variant": "YGGT", "one-hybrid fitness for binding NBS DNA": "≤ 0.2"}
{"variant": "TNLC", "one-hybrid fitness for binding NBS DNA": "≤ 0.2"}
{"variant": "RYPR", "one-hybrid fitness for binding NBS DNA": "≤ 0.2"}
{"variant": "SRYE", "one-hybrid fitness for binding NBS DNA": "≤ 0.2"}
{"variant": "MARG", "one-hybrid fitness for binding NBS DNA": "≤ 0.2"}
{"variant": "VVAY", "one-hybrid fitness for binding NBS DNA": "≤ 0.2"}
{"variant": "QNED", "one-hybrid fitness for binding NBS DNA": "≤ 0.2"}
{"variant": "AVKW", "one-hybrid fitness for binding NBS DNA": "≤ 0.2"}
{"variant": "INMG", "one-hybrid fitness for binding NBS DNA": "≤ 0.2"}
{"variant": "DVWE", "one-hybrid fitness for binding NBS DNA": "≤ 0.2"}
{"variant": "ATGP", "one-hybrid fitness for binding NBS DNA": "≤ 0.2"}
{"variant": "YWSG", "one-hybrid fitness for binding NBS DNA": "≤ 0.2"}
{"variant": "CDHV", "one-hybrid fitness for binding NBS DNA": "≤ 0.2"}
{"variant": "HDPQ", "one-hybrid fitness for binding NBS DNA": "≤ 0.2"}
{"variant": "FYAT", "one-hybrid fitness for binding NBS DNA": "≤ 0.2"}
{"variant": "RAQT", "one-hybrid fitness for binding NBS DNA": 0.395}
{"variant": "HDCY", "one-hybrid fitness for binding NBS DNA": "≤ 0.2"}
{"variant": "TRNW", "one-hybrid fitness for binding NBS DNA": "≤ 0.2"}
{"variant": "CPWT", "one-hybrid fitness for binding NBS DNA": "≤ 0.2"}
{"variant": "GKLH", "one-hybrid fitness for binding NBS DNA": 0.366}
{"variant": "RAVW", "one-hybrid fitness for binding NBS DNA": "≤ 0.2"}
{"variant": "GDRS", "one-hybrid fitness for binding NBS DNA": "≤ 0.2"}
{"variant": "TWLT", "one-hybrid fitness for binding NBS DNA": "≤ 0.2"}
{"variant": "TKVR", "one-hybrid fitness for binding NBS DNA": "≤ 0.2"}
{"variant": "YRDG", "one-hybrid fitness for binding NBS DNA": "≤ 0.2"}
{"variant": "PIPY", "one-hybrid fitness for binding NBS DNA": "≤ 0.2"}
{"variant": "ALKP", "one-hybrid fitness for binding NBS DNA": "≤ 0.2"}
{"variant": "PKSC", "one-hybrid fitness for binding NBS DNA": "≤ 0.2"}
{"variant": "PIAD", "one-hybrid fitness for binding NBS DNA": "≤ 0.2"}
{"variant": "AYHC", "one-hybrid fitness for binding NBS DNA": "≤ 0.2"}
{"variant": "PSFS", "one-hybrid fitness for binding NBS DNA": "≤ 0.2"}
{"variant": "QGFS", "one-hybrid fitness for binding NBS DNA": "≤ 0.2"}
{"variant": "QPVN", "one-hybrid fitness for binding NBS DNA": "≤ 0.2"}
{"variant": "KEGR", "one-hybrid fitness for binding NBS DNA": "≤ 0.2"}
{"variant": "SWSY", "one-hybrid fitness for binding NBS DNA": "≤ 0.2"}
{"variant": "NWWR", "one-hybrid fitness for binding NBS DNA": "≤ 0.2"}
{"variant": "AYSK", "one-hybrid fitness for binding NBS DNA": "≤ 0.2"}
{"variant": "LARS", "one-hybrid fitness for binding NBS DNA": "≤ 0.2"}
{"variant": "PRCY", "one-hybrid fitness for binding NBS DNA": "≤ 0.2"}
{"variant": "AFEI", "one-hybrid fitness for binding NBS DNA": "≤ 0.2"}
{"variant": "YPGQ", "one-hybrid fitness for binding NBS DNA": "≤ 0.2"}
{"variant": "IRKT", "one-hybrid fitness for binding NBS DNA": 0.471}
{"variant": "YQHT", "one-hybrid fitness for binding NBS DNA": "≤ 0.2"}
{"variant": "KNNN", "one-hybrid fitness for binding NBS DNA": "≤ 0.2"}
{"variant": "WCVG", "one-hybrid fitness for binding NBS DNA": "≤ 0.2"}
{"variant": "YAHV", "one-hybrid fitness for binding NBS DNA": "≤ 0.2"}
{"variant": "KPWT", "one-hybrid fitness for binding NBS DNA": "≤ 0.2"}
{"variant": "WHFS", "one-hybrid fitness for binding NBS DNA": "≤ 0.2"}
{"variant": "IYRA", "one-hybrid fitness for binding NBS DNA": "≤ 0.2"}
{"variant": "ILIR", "one-hybrid fitness for binding NBS DNA": "≤ 0.2"}
{"variant": "CPTL", "one-hybrid fitness for binding NBS DNA": "≤ 0.2"}
{"variant": "ACIR", "one-hybrid fitness for binding NBS DNA": "≤ 0.2"}
{"variant": "RWVS", "one-hybrid fitness for binding NBS DNA": "≤ 0.2"}
{"variant": "ITGA", "one-hybrid fitness for binding NBS DNA": "≤ 0.2"}
{"variant": "TILR", "one-hybrid fitness for binding NBS DNA": "≤ 0.2"}
{"variant": "PDGM", "one-hybrid fitness for binding NBS DNA": "≤ 0.2"}
{"variant": "VRVY", "one-hybrid fitness for binding NBS DNA": "≤ 0.2"}
{"variant": "PSRE", "one-hybrid fitness for binding NBS DNA": "≤ 0.2"}
{"variant": "MSWR", "one-hybrid fitness for binding NBS DNA": "≤ 0.2"}
{"variant": "SCHL", "one-hybrid fitness for binding NBS DNA": "≤ 0.2"}
{"variant": "RYAI", "one-hybrid fitness for binding NBS DNA": "≤ 0.2"}
{"variant": "YYDS", "one-hybrid fitness for binding NBS DNA": "≤ 0.2"}
{"variant": "QGHR", "one-hybrid fitness for binding NBS DNA": 0.239}
{"variant": "TTYA", "one-hybrid fitness for binding NBS DNA": "≤ 0.2"}
{"variant": "CIDS", "one-hybrid fitness for binding NBS DNA": "≤ 0.2"}
{"variant": "QNTR", "one-hybrid fitness for binding NBS DNA": 0.223}
{"variant": "APVW", "one-hybrid fitness for binding NBS DNA": "≤ 0.2"}
{"variant": "MDNS", "one-hybrid fitness for binding NBS DNA": "≤ 0.2"}
{"variant": "EQKR", "one-hybrid fitness for binding NBS DNA": "≤ 0.2"}
{"variant": "YRPP", "one-hybrid fitness for binding NBS DNA": "≤ 0.2"}
{"variant": "DGTT", "one-hybrid fitness for binding NBS DNA": "≤ 0.2"}
{"variant": "RKQT", "one-hybrid fitness for binding NBS DNA": 0.606}
{"variant": "KTYR", "one-hybrid fitness for binding NBS DNA": "≤ 0.2"}
{"variant": "VMRR", "one-hybrid fitness for binding NBS DNA": 0.261}
{"variant": "YSST", "one-hybrid fitness for binding NBS DNA": "≤ 0.2"}
{"variant": "YHGF", "one-hybrid fitness for binding NBS DNA": "≤ 0.2"}
{"variant": "RWYD", "one-hybrid fitness for binding NBS DNA": "≤ 0.2"}
{"variant": "RIHA", "one-hybrid fitness for binding NBS DNA": "≤ 0.2"}
{"variant": "QKAS", "one-hybrid fitness for binding NBS DNA": 0.498}
{"variant": "KVSI", "one-hybrid fitness for binding NBS DNA": "≤ 0.2"}
{"variant": "QAWK", "one-hybrid fitness for binding NBS DNA": "≤ 0.2"}
{"variant": "HSPM", "one-hybrid fitness for binding NBS DNA": "≤ 0.2"}
{"variant": "WMFS", "one-hybrid fitness for binding NBS DNA": "≤ 0.2"}
{"variant": "HIFG", "one-hybrid fitness for binding NBS DNA": "≤ 0.2"}
{"variant": "TDIG", "one-hybrid fitness for binding NBS DNA": "≤ 0.2"}
{"variant": "NKPY", "one-hybrid fitness for binding NBS DNA": "≤ 0.2"}
{"variant": "PCVE", "one-hybrid fitness for binding NBS DNA": "≤ 0.2"}
{"variant": "PLSI", "one-hybrid fitness for binding NBS DNA": "≤ 0.2"}
{"variant": "QSDT", "one-hybrid fitness for binding NBS DNA": 0.32}
{"variant": "SQPY", "one-hybrid fitness for binding NBS DNA": "≤ 0.2"}
{"variant": "DTRD", "one-hybrid fitness for binding NBS DNA": "≤ 0.2"}
{"variant": "RSKY", "one-hybrid fitness for binding NBS DNA": 0.29}
{"variant": "ILCG", "one-hybrid fitness for binding NBS DNA": "≤ 0.2"}
{"variant": "SMDT", "one-hybrid fitness for binding NBS DNA": "≤ 0.2"}
{"variant": "RKVV", "one-hybrid fitness for binding NBS DNA": "≤ 0.2"}
{"variant": "GTGV", "one-hybrid fitness for binding NBS DNA": "≤ 0.2"}
{"variant": "FAST", "one-hybrid fitness for binding NBS DNA": "≤ 0.2"}
{"variant": "CLVG", "one-hybrid fitness for binding NBS DNA": "≤ 0.2"}
{"variant": "ILKL", "one-hybrid fitness for binding NBS DNA": "≤ 0.2"}
{"variant": "LHDV", "one-hybrid fitness for binding NBS DNA": "≤ 0.2"}
{"variant": "FHCS", "one-hybrid fitness for binding NBS DNA": "≤ 0.2"}
{"variant": "SSSF", "one-hybrid fitness for binding NBS DNA": "≤ 0.2"}
{"variant": "EGRH", "one-hybrid fitness for binding NBS DNA": "≤ 0.2"}
{"variant": "ITES", "one-hybrid fitness for binding NBS DNA": "≤ 0.2"}
{"variant": "VRGL", "one-hybrid fitness for binding NBS DNA": "≤ 0.2"}
{"variant": "PQEL", "one-hybrid fitness for binding NBS DNA": "≤ 0.2"}
{"variant": "QMQL", "one-hybrid fitness for binding NBS DNA": "≤ 0.2"}
{"variant": "PYTV", "one-hybrid fitness for binding NBS DNA": "≤ 0.2"}
{"variant": "QWPE", "one-hybrid fitness for binding NBS DNA": "≤ 0.2"}
{"variant": "PNQM", "one-hybrid fitness for binding NBS DNA": "≤ 0.2"}
{"variant": "LSGW", "one-hybrid fitness for binding NBS DNA": "≤ 0.2"}
{"variant": "RYVV", "one-hybrid fitness for binding NBS DNA": "≤ 0.2"}
{"variant": "TARR", "one-hybrid fitness for binding NBS DNA": 0.209}
{"variant": "PTIV", "one-hybrid fitness for binding NBS DNA": "≤ 0.2"}
{"variant": "YLAK", "one-hybrid fitness for binding NBS DNA": "≤ 0.2"}
{"variant": "CVCR", "one-hybrid fitness for binding NBS DNA": "≤ 0.2"}
{"variant": "NYHK", "one-hybrid fitness for binding NBS DNA": "≤ 0.2"}
{"variant": "LAGV", "one-hybrid fitness for binding NBS DNA": "≤ 0.2"}
{"variant": "GLTC", "one-hybrid fitness for binding NBS DNA": "≤ 0.2"}
{"variant": "IGTG", "one-hybrid fitness for binding NBS DNA": "≤ 0.2"}
{"variant": "TSFA", "one-hybrid fitness for binding NBS DNA": "≤ 0.2"}
{"variant": "KMTC", "one-hybrid fitness for binding NBS DNA": "≤ 0.2"}
{"variant": "HSGV", "one-hybrid fitness for binding NBS DNA": "≤ 0.2"}
{"variant": "SGDR", "one-hybrid fitness for binding NBS DNA": "≤ 0.2"}
{"variant": "DNCG", "one-hybrid fitness for binding NBS DNA": "≤ 0.2"}
{"variant": "RVCD", "one-hybrid fitness for binding NBS DNA": "≤ 0.2"}
{"variant": "VSRA", "one-hybrid fitness for binding NBS DNA": "≤ 0.2"}
{"variant": "IMRL", "one-hybrid fitness for binding NBS DNA": "≤ 0.2"}
{"variant": "LTTG", "one-hybrid fitness for binding NBS DNA": "≤ 0.2"}
{"variant": "NAER", "one-hybrid fitness for binding NBS DNA": "≤ 0.2"}
{"variant": "QVNI", "one-hybrid fitness for binding NBS DNA": "≤ 0.2"}
{"variant": "AKHC", "one-hybrid fitness for binding NBS DNA": "≤ 0.2"}
{"variant": "GTTG", "one-hybrid fitness for binding NBS DNA": "≤ 0.2"}
{"variant": "SFLV", "one-hybrid fitness for binding NBS DNA": "≤ 0.2"}
{"variant": "TIKD", "one-hybrid fitness for binding NBS DNA": "≤ 0.2"}
{"variant": "QNWS", "one-hybrid fitness for binding NBS DNA": "≤ 0.2"}
{"variant": "SSFS", "one-hybrid fitness for binding NBS DNA": "≤ 0.2"}
{"variant": "SFKG", "one-hybrid fitness for binding NBS DNA": "≤ 0.2"}
{"variant": "CTHM", "one-hybrid fitness for binding NBS DNA": "≤ 0.2"}
{"variant": "DYRN", "one-hybrid fitness for binding NBS DNA": "≤ 0.2"}
{"variant": "TWEM", "one-hybrid fitness for binding NBS DNA": "≤ 0.2"}
{"variant": "NRPY", "one-hybrid fitness for binding NBS DNA": "≤ 0.2"}
{"variant": "FRNK", "one-hybrid fitness for binding NBS DNA": "≤ 0.2"}
